Test results: the supplement of paper PMC11417369
Some of the results follow.

system: PF3D7_0420300 AP2 domain 1 (GST-tagged); assay: gcPBM binding intensity (ln(normalized median fluorescence intensity)); higher = stronger DNA binding
Procedure, shortened: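 Binding of GST-tagged P. falciparum DNA-binding domains, expressed in E. coli and used at about 25 μg on average, was carried out for 1 h in 1× PBS containing 1% milk, 0.2 mg/ml BSA, 0.5% salmon testes DNA and 0.03% Triton X-100. The target was an Agilent 4 × 180k array of primer-extended double-stranded 36-bp intergenic genomic probes plus negative controls, read with Alexa488 anti-GST antibody at 488 nm. Binding intensity is the highest Masliner-normalised natural-log median intensity across replicate spots of either probe orientation.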

Sequence	gcPBM binding intensity (ln)
TTCAAGGTTTTAGATTGTACAATTATTATATATATA [XGTACX_site8982]	9.28
TATAAATAAAAACACACACACACATATATATATATA [CACACA_site2268]	9.94
TATAAATATAAATATACACACATATTTATATTTATA [CACACA_site7053]	9.29
CTCTATAAATGCTGCACACACATTTAATTATTTAAG [CACACA_site2582]	9.51
TTTTACAATGAAAGGTGTACAAGTAACAGTAGAACA [XGTACX_site1528]	9.39
AAATGAAATACATCCTGTACATAGTAATGCTAACAA [XGTACX_site6600]	9.23
TATTTTTATATTTTTGCACACATTCTTTACTCTTCA [CACACA_site2211]	9.76
AAAAATTTTATATTCACACACATATATATATATATA [CACACA_site624]	9.49
GATATATATTAATATACACACACACCGATATATATA [CACACA_site8462]	10
AACAAATACAGACACACACACACACTAATAAAAAAA [CACACA_site8067]	10.3
TTTATATTTTATAAATTATTCATAAATATATTTGTA [TGCATGCA_negctrl_site175]	8.83
AATAAATAGATAAGCACACAAGCATATAGACATATA [CACACA_site222]	9.65
AAATTCCACCAACACACACACATATAAATAAATAAA [CACACA_site1233]	9.96
TTTTGAAACATATGATGTACACGAACATTTAAAAAA [XGTACX_site474]	9.06
ATAAATAAAGGACACACACACACACTAGAAAAAAAA [CACACA_site5450]	10
AAAATAAAATTAGTTGCATGCAACTTAAACAGAAAT [TGCATGCA_site860]	9.51
TTGTGCTTGATATCACGGACAAGCTCATATTATATA [XGTACX_site4553]	9.02
TATATTATTAAGATATGTACATAATTATAAATTTAA [XGTACX_site6848]	9.09
ATGAAAAAATTTATATGTACTTAAAATATAATCATA [XGTACX_site1228]	8.98

Sequence	gcPBM binding intensity (ln)
GCGTTATTAAATAATTCACACACATATATATATATA [CACACA_site8711]	9.72
GAACGCCATTCACATAAAGGGATACATAAATAAATA [XGTACX_negctrl_site330]	8.98
AAGAAAAACTTTACGTGTACCAAACGTCATGCCAAC [XGTACX_site2575]	9.35
TTCTTGTATTTTCATAGTACATATAATGTCGTATTA [XGTACX_site600]	9.45
AATCACAAATAAAATAATATGACACAATATAAAATA [CACACA_negctrl_site537]	9.5
TACTTACACTGTTTTTGTACTTATTTCCCTTTTATT [XGTACX_site2158]	9.84
TAATTTCTTATGTATTGTACAAATAATGTATGATAT [XGTACX_site270]	9.2
AAATATTTATAGGTTTGTACTTATAAATAAAAAAAA [XGTACX_site7360]	9.1
TTTATAAAAATGAACACACACATATATATATATATA [CACACA_site3493]	9.41
AATATGAAAAGATGAACAACAAAATGGAGAACAATA [GTGCAC_negctrl_site612]	9.74
ATACAAAATTTTTAAGAACACACAAAAATGTACTAT [CACACA_site8817]	9.35
TGAGGTAACTAAATATGTACGTAACGAAGATACATA [XGTACX_site8231]	9.4
TTTATTATACAAAATTGTACTTTATAATTTTATGTA [XGTACX_site5846]	9.08
AAATATTACGGAATAAAGAGCTTTTAAATAATTTTA [CACACA_negctrl_site1700]	9.03
AGAAACCTTGTTAGTTAGCATATATATATATATATA [CACACA_negctrl_site372]	9.11
AAATATAAACGGCACACACACAAAAAAAGAAAAAAA [CACACA_site649]	10.2
TATTTTATACATATTTTACACACTAATATATACATA [CACACA_site7998]	9.42
AAATGTTATAACTCTTGAAAAAACAAAATATCATCA [CACACA_negctrl_site1156]	9.12
ACTTTACAATATATATGTACATATTAATAAACATAT [XGTACX_site3689]	9.28

Sequence	gcPBM binding intensity (ln)
GAGTTTTTTTAATGATGTACATTTTAAAAATAAACG [XGTACX_site1036]	8.86
AAAATAATATATGTATGTACATATACACATATAGAA [XGTACX_site2218]	9.29
TCATATATCATAACAGTGCAAAAAAAAAAAAATTAT	9.26
AAAAAAAAAAAAGAAACACACATATATATATATATA [CACACA_site140]	9.23
GTTTGATTAAACTTGACACACATATATATAAATATA [CACACA_site1784]	9.29
AGAAAATATACAAAACGTACTTATATATTATATCTA [XGTACX_site3104]	9.12
GTTAGAGGGAAAAAGAGTACATATATGTGGATAATT [XGTACX_site2064]	9.26
GTTGCGTATATATACACACATACATATATATATATA [CACACA_site1607]	9.45
TTATATAATAAAAATTGTACATATTATATATATATT [XGTACX_site3427]	9.09
TAATATTCAATTATACGTACACATATATATATATAT [XGTACX_site4245]	9.26
ATTCATTCATATGTTACACACACACGCCCACATAAA [CACACA_site7513]	10.3
TTATATATATATATATATATTTACATAATAATATGT [GTGCAC_negctrl_site388]	9
TAAAAAAAGGTTATTGGTACACACATATGTATATAT [XGTACX_site1029]	9.55
TAAACTTTCCAGTGTTGTACATAATAATTATTATAT [XGTACX_site8896]	9.23
AAAGATATGAAATATACACACTTCTTTGGTATTATT [CACACA_site6352]	9.42
TATTTATGTATATGCTGTACGCATTTGTGAAACATA [XGTACX_site4688]	9.06
AACCAATTAGAAGGATCCAGAACTTATTTGTTTTTA [CACACA_negctrl_site1744]	9.11
TACAAGCCCAATTCAAGTACATATATATATATATAT [XGTACX_site5569]	9.21
